# This list was built around the results that the source calls inconclusive (neither active nor inactive); the mix of calls is not that of the screen. For some of these results: No potency is given beside an inconclusive call; the fits are too rough. Active and inactive are the calls of the source. Calls follow the shape of the dose curve; as a rule, active = well fitted curve in the direction sought with a large enough effect; inconclusive = small, poorly fitted or top-dose-only effect, or another doubt; inactive = no such curve, though single readings can be large; an effect the other way counts as inactive or inconclusive.
# What was measured:
# [1] = qHTS of pediatric cancer cell lines to identify multiple opportunities for drug repurposing: Primary screen for A673 cells (AID 1347092); conditions: A673 Ewing sarcoma viability, CellTiter-Glo ATP luminescence, 48 h; activity change, negative = cytotoxic: at 46 µM (top of the series); also: nearly all actives have a fitted effect of over 45% in size; also: potency is read from the fitted curve at half-maximal effect
# Procedure, shortened: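 Cells are plated, rested 5 h, dosed by pintool, incubated 48 h, then lysed with CellTiter-Glo and read by luminescence. DMSO is the neutral control; bortezomib at 2.3 uM final is the positive control.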
# [2] = qHTS of pediatric cancer cell lines to identify multiple opportunities for drug repurposing: Primary screen for U-2 OS cells (AID 1347096); also: potency is read from the fitted curve at half-maximal effect; nearly all actives have a fitted effect of over 50% in size
# Procedure, shortened: (§1)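 Cells (500-1,000/well) rested 5 h, then received compounds for 48 h; metabolically active cells were measured by CellTiter-Glo luminescence. Final concentrations spanned up to 46 µM (MIPE, 11-point) or 0.59 nM-46 µM (NPC, 8-point) in primary screens, 11-point in follow-ups.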
# [3] = qHTS of pediatric cancer cell lines to identify multiple opportunities for drug repurposing: Primary screen for Saos-2 cells (AID 1347097); also: nearly all actives have a fitted effect of over 40% in size; also: potency is read from the fitted curve at half-maximal effect
# Procedure, shortened: (§2)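 Cells seeded at 500-1,000 cells/well in growth media, rested 5 hours at 37 degrees C, 5% CO2, then dosed; MIPE compounds at 11-point (from 0.78 nM) and NPC at 8-point (from 0.59 nM) final concentrations. Viability by CellTiter-Glo luminescence after 48 hours.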
# [4] = qHTS of pediatric cancer cell lines to identify multiple opportunities for drug repurposing: Primary screen for BT-12 cells (AID 1347101); also: nearly all actives have a fitted effect of over 25% in size; also: potency is read from the fitted curve at half-maximal effect
# Procedure, shortened: as §1
# [5] = qHTS of pediatric cancer cell lines to identify multiple opportunities for drug repurposing: Primary screen for Rh18 cells (AID 1347102); also: potency is read from the fitted curve at half-maximal effect; nearly all actives have a fitted effect of over 65% in size
# Procedure, shortened: as §1
# [6] = qHTS of pediatric cancer cell lines to identify multiple opportunities for drug repurposing: Primary screen for Rh30 cells (AID 1347107); also: potency is read from the fitted curve at half-maximal effect; nearly all actives have a fitted effect of over 75% in size
# Procedure, shortened: as §1
# [7] = qHTS of pediatric cancer cell lines to identify multiple opportunities for drug repurposing: Primary screen for Rh41 cells (AID 1347108); also: nearly all actives have a fitted effect of over 70% in size; also: potency is read from the fitted curve at half-maximal effect;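 as to activity change, negative = cytotoxic: luminescence drop marks cytotoxic hits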
# Procedure, shortened: as §2
# [8] = qHTS of pediatric cancer cell lines to identify multiple opportunities for drug repurposing: Primary screen for NB-EBc1 cells (AID 1347095); also: potency is read from the fitted curve at half-maximal effect
# Procedure, shortened: as §2
# [9] = qHTS of pediatric cancer cell lines to identify multiple opportunities for drug repurposing: Primary screen for NB1643 cells (AID 1347099); also: nearly all actives have a fitted effect of over 50% in size; also: potency is read from the fitted curve at half-maximal effect
# Procedure, shortened: as §2
# [10] = qHTS of pediatric cancer cell lines to identify multiple opportunities for drug repurposing: Primary screen for LAN-5 cells (AID 1347100); conditions: LAN-5 neuroblastoma viability, CellTiter-Glo luminescence, 48 h; activity change, negative = cytotoxic: at 46 µM (top of the series); also: potency is read from the fitted curve at half-maximal effect
# Procedure, shortened: as §1
# [11] = qHTS of pediatric cancer cell lines to identify multiple opportunities for drug repurposing: Primary screen for RD cells (AID 1347104); also: nearly all actives have a fitted effect of over 55% in size; also: potency is read from the fitted curve at half-maximal effect
# Procedure, shortened: as §2
# [12] = qHTS of pediatric cancer cell lines to identify multiple opportunities for drug repurposing: Primary screen for OHS-50 cells (AID 1347103); also: nearly all actives have a fitted effect of over 40% in size; also: potency is read from the fitted curve at half-maximal effect
# Procedure, shortened: as §1
# [13] = qHTS of pediatric cancer cell lines to identify multiple opportunities for drug repurposing: Primary screen for SK-N-MC cells (AID 1347093); conditions: SK-N-MC viability, CellTiter-Glo luminescence, 48 h; activity change, negative = cytotoxic: at 46 µM (top of the series)
# Procedure, shortened: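 Metabolically active cells were quantified by ATP-dependent luminescence (CellTiter-Glo, 15 min at room temperature) following 48 h treatment. Cells had been plated at 500-1,000 per well and settled for 5 h beforehand.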
# [14] = qHTS of pediatric cancer cell lines to identify multiple opportunities for drug repurposing: Primary screen for SK-N-SH cells (AID 1347098); also: nearly all actives have a fitted effect of over 65% in size; also: potency is read from the fitted curve at half-maximal effect;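 as to activity change, negative = cytotoxic: DMSO served as neutral control and bortezomib at 2.3 µM as positive control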
# Procedure, shortened: as §1
# [15] = qHTS of pediatric cancer cell lines to identify multiple opportunities for drug repurposing: Primary screen for BT-37 cells (AID 1347094)
# Procedure, shortened: as §2
# [16] = qHTS of pediatric cancer cell lines to identify multiple opportunities for drug repurposing: Primary screen for control Hh wild type fibroblast cells (AID 1347106); also: nearly all actives have a fitted effect of over 55% in size; also: potency is read from the fitted curve at half-maximal effect;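 as to activity change, negative = cytotoxic: a drop in luminescence marks cytotoxicity and a rise apparent proliferation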
# Procedure, shortened: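 Cells (500-1,000/well) in growth media were settled 5 h at 37 degrees C, then given compounds for 48 h. Viability was read as CellTiter-Glo luminescence. Primary runs used MIPE at 11 points (0.78 nM-46 µM) and NPC at 8 points (0.59 nM-46 µM); follow-ups used 11 points.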
# [17] = qHTS of pediatric cancer cell lines to identify multiple opportunities for drug repurposing: Primary screen for MG 63 (6-TG R) cells (AID 1347105); conditions: MG 63 (6-TG R) viability, CellTiter-Glo, 48 h; activity change, negative = cytotoxic: at 46 µM (top of the series); also: potency is read from the fitted curve at half-maximal effect; nearly all actives have a fitted effect of over 50% in size
# Procedure, shortened: as §2
# Tags tell the direction and shape of the fitted curve.
compound,measurement,setting,value
NC(=O)Nc1cc(-c2cccc(F)c2)sc1C(=O)N[C@H]1CCCNC1,Potency,[1],active: 0.187 µM
same,Potency,[2],active: 0.935 µM
same,Potency,[3],active: 1.32 µM
same,Potency,[4],"inconclusive [cytotoxic, partial curve]"
same,Potency,[5],active: 13.2 µM
same,Potency,[6],active: 0.833 µM
same,Potency,[7],active: 1.87 µM
COC(=O)N[C@H](C(=O)N[C@@H](Cc1ccccc1)[C@@H](O)CN(Cc1ccc(-c2ccccn2)cc1)NC(=O)[C@@H](NC(=O)OC)C(C)(C)C)C(C)(C)C,Potency,[1],"inconclusive [cytotoxic, partial curve]"
same,Potency,[8],"inconclusive [cytotoxic, partial curve, poor fit]"
same,Potency,[3],"inconclusive [cytotoxic, partial curve, poor fit]"
same,Potency,[9],"inconclusive [cytotoxic, single point]"
same,Potency,[10],inactive
same,Potency,[11],"inconclusive [cytotoxic, partial curve]"
same,Potency,[7],"inconclusive [cytotoxic, partial curve]"
Nc1ccn([C@@H]2CS[C@H](CO)O2)c(=O)n1,Potency,[1],inactive
same,Potency,[12],inactive
same,Potency,[11],inactive
same,Potency,[7],inactive
O=C(O)CCc1ccc(NCc2cccc(Oc3ccccc3)c2)cc1,Potency,[13],inactive
CC(=O)N[C@@H]1[C@H](O[C@@H]2c3ccc(c(Cl)c3)Oc3cc4cc(c3O[C@H]3O[C@H](CO)[C@@H](O)[C@H](O)[C@H]3NC(=O)CCCCCCCC(C)C)Oc3ccc(cc3Cl)C[C@H]3NC(=O)[C@H](N)c5ccc(O)c(c5)Oc5cc(O)cc(c5)[C@H](NC3=O)C(=O)N[C@H]4C(=O)N[C@H]3C(=O)N[C@@H]2C(=O)N[C@@H](C(=O)O)c2cc(O)cc(O[C@H]4O[C@H](CO)[C@@H](O)[C@H](O)[C@H]4O)c2-c2cc3ccc2O)O[C@H](CO)[C@@H](O)[C@@H]1O,Potency,[1],inactive
same,Potency,[4],inactive
CC(C)(CO)[C@@H](O)C(=O)NCCC(=O)O,Potency,[1],"inconclusive [cytotoxic, partial curve, poor fit]"
same,Potency,[14],inactive
same,Potency,[9],"inconclusive [cytotoxic, partial curve]"
O=C1C(CCC(O)c2ccc(F)cc2)C(c2ccc(O)cc2)N1c1ccc(F)cc1 (configuration not stated),Potency,[1],inactive
same,Potency,[15],inactive
same,Potency,[12],"inconclusive [cytotoxic, partial curve]"
same,Potency,[7],inactive
Cc1cnc(Nc2cccc(CN3CCOCC3)c2)nc1Nc1cccc(S(=O)(=O)NC(C)(C)C)c1,Potency,[1],active: 5.9 µM
same,Potency,[8],active: 4.18 µM
same,Potency,[14],"inconclusive [cytotoxic, full curve, poor fit]"
same,Potency,[5],active: 8.33 µM
same,Potency,[11],active: 13.2 µM
same,Potency,[16],"inconclusive [cytotoxic, partial curve, poor fit]"
same,Potency,[6],active: 8.33 µM
Cc1cc2nc3c(=O)[nH]c(=O)nc-3n(CC(O)C(O)C(O)CO)c2cc1C (configuration not stated),Potency,[1],"inconclusive [cytotoxic, single point]"
same,Potency,[14],"inconclusive [cytotoxic, single point]"
same,Potency,[7],inactive
CC[C@H](C)C(=O)O[C@H]1C[C@H](O)C=C2C=C[C@H](C)[C@H](CC[C@@H](O)C[C@@H](O)CC(=O)O)[C@H]21,Potency,[1],inactive
same,Potency,[3],"inconclusive [cytotoxic, partial curve, poor fit]"
C[C@H]1COc2c(N3CCN(C)CC3)c(F)cc3c(=O)c(C(=O)O)cn1c23,Potency,[1],inactive
same,Potency,[3],inactive
same,Potency,[9],inactive
same,Potency,[10],inactive
CC1=C(C(=O)Nc2cc3cn[nH]c3cc2F)C(c2ccc(Cl)cc2F)N=C(c2ccnc(Cl)c2)N1 (configuration not stated),Potency,[1],"inconclusive [cytotoxic, partial curve]"
same,Potency,[9],"inconclusive [cytotoxic, full curve]"
same,Potency,[10],active: 9.35 µM
same,Potency,[4],"inconclusive [cytotoxic, partial curve]"
same,Potency,[5],"inconclusive [cytotoxic, partial curve, poor fit]"
same,Potency,[12],"inconclusive [cytotoxic, partial curve]"
same,Potency,[17],"inconclusive [cytotoxic, partial curve, poor fit]"
same,Potency,[16],inactive
same,Potency,[7],"inconclusive [cytotoxic, partial curve]"
C[C@H](CCC(=O)O)[C@H]1CC[C@H]2[C@@H]3[C@H](O)C[C@@H]4C[C@H](O)CC[C@]4(C)[C@@H]3CC[C@]12C,Potency,[1],inactive
same,Potency,[9],"inconclusive [cytotoxic, single point]"
same,Potency,[11],inactive
C=CC(=O)Nc1cc2c(Nc3ccc(F)c(Cl)c3)ncnc2cc1OCCCN1CCOCC1,Potency,[1],active: 4.69 µM
same,Potency,[8],active: 18.7 µM
same,Potency,[2],active: 7.43 µM
same,Potency,[5],active: 8.33 µM
same,Potency,[6],active: 18.7 µM
same,Potency,[7],active: 18.7 µM
NS(=O)(=O)c1cc2c(cc1Cl)NC(C(Cl)Cl)NS2(=O)=O (configuration not stated),Potency,[1],inactive
same,Potency,[15],inactive
same,Potency,[3],inactive
same,Potency,[10],inactive
same,Potency,[7],inactive

# Source: PubChem BioAssay (NCATS)
